In the supplement of paper PMC11369174, “Proteome-scale characterisation of motif-based interactome rewiring by disease mutations” (Molecular Systems Biology, 2024):
The other results are listed elsewhere or left out. Read counts after selection give these values, which scatter widely.

T1: PEX14_Pex14__O75381_16_84
T1 chain: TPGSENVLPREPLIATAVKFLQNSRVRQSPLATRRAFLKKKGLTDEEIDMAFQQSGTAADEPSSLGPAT


Target: T1, PEX14_Pex14__O75381_16_84
Assay: mean normalised NGS count of phage-displayed peptide after selection on bait (% of reads); baits are purified protein domains named by gene / domain / UniProt id / residues; peptides come from disordered regions of human proteins; higher = stronger enrichment / binding
Conditions: replicate selections in which the peptide was seen: 2

Row | Binder | mean normalised NGS count
1 | LAMLRSLDLEGLWSTL [BRAT1 773-788 mut Q6PJG6.R785W] | 0.00276
2 | LIEFRVLAGEWIETMW [SCN3A 942-957 mut P35498.V944E] | 0.472
3 | TFSEELANLYHHVWMA [BICD2 529-544 mut Q8TD16.C542W] | 0.157
4 | LEGLWSTLAESSDHVE [BRAT1 781-796 mut Q6PJG6.R785W] | 0.00844
5 | DGGEEGMDEQYWQIAN [NACC1 287-302 mut Q96RE7.R298W] | 0.00384
6 | LIEFRVLAGEWIETMW [SCN9A 942-957 mut P35498.V944E] | 0.472
7 | LIEFRVLAGEWIETMW [SCN2A 942-957 mut P35498.V944E] | 0.472
8 | LIEFRVLAGEWIETMW [SCN8A 942-957 mut P35498.V944E] | 0.472
9 | QTQQHSGWVSQFNPMN [TAB2 228-243 wt] | 0.0321

Same assay, conditions: replicate selections in which the peptide was seen: 5

Row | Binder | mean normalised NGS count
10 | TDSTPATWKQEYVDYS [DKC1 405-420 wt] | 0.257
11 | TTDFPGIYSGYDDAWD [POLR1C 26-41 mut O15160.N32I] | 0.163
12 | LDLLQEHSDEAIWAAL [ABCC6 1360-1375 wt] | 1.54
13 | TDSTLATWKQEYVDYS [DKC1 405-420 mut O60832.P409L] | 0.344
14 | DEVTAFLGEWGLFQRL [SLC22A5 5-20 mut O76082.P16L] | 0.142
15 | YDEVTAFLGEWGLFQR [SLC22A5 4-19 mut O76082.P16L] | 0.545
16 | QQRAAPGEPDWMGRLW [CACNA1H 764-779 mut O95180.G773D] | 7.47
17 | ELSNALMAAEWFKEHR [TSC2 1230-1245 mut P49815.R1240W] | 0.0695
18 | TEHSTVGLAQQWDQLD [SPTAN1 2283-2298 wt] | 0.0432
19 | DRYGEVWRGLWHGESV [ACVRL1 211-226 mut P37023.G211D] | 0.0841

Same assay, conditions: replicate selections in which the peptide was seen: 4

Row | Binder | mean normalised NGS count
20 | VAANKSQGWLAELLRW [SATB2 508-523 wt] | 2.05
21 | ELANLYHHVWMANNET [BICD2 533-548 mut Q8TD16.C542W] | 0.0202
22 | HSEFSEVMNEIWASDQ [HADHA 69-84 wt] | 0.0655
23 | TDSIPATWKQEYVDYS [DKC1 405-420 mut O60832.T408I] | 0.0411
24 | SWLASYLDKVQALEEA [KRT9 162-177 mut P35527.R163W] | 0.435
25 | MPAWGALFLLWATAEA [GP9 1-16 wt] | 0.0735
26 | LATWKQEYVDYSESAK [DKC1 409-424 mut O60832.P409L] | 0.0462
27 | DSHDIPWVSQYRLAAH [COX15 211-226 mut Q7KZN9.R217W] | 0.0214
28 | KLENRLDYGSAWAAAA [AR 388-403 mut P10275.P392R] | 0.021
29 | PATWKQEYVDYSESAK [DKC1 409-424 wt] | 0.0457
30 | RSLDLEGLWSTLAESS [BRAT1 777-792 mut Q6PJG6.R785W] | 0.0261
31 | LQLEWISVYYNEASSH [TUBB3 42-57 mut Q13509.R46W] | 0.119
32 | MNLDLLQEHSDEAIWA [ABCC6 1358-1373 wt] | 0.0145

Same assay, conditions: replicate selections in which the peptide was seen: 6

Row | Binder | mean normalised NGS count
33 | YDEVTAFLGEWWPFQR [SLC22A5 4-19 mut O76082.G15W] | 0.41
34 | GDSDLQLEWISVYYNE [TUBB3 38-53 mut Q13509.R46W] | 1.72
35 | EQLALRTDLTEAWVQV [ALX3 184-199 mut O95076.R196W] | 3.08
36 | APGEPDWMGRLWVTFS [CACNA1H 768-783 mut O95180.G773D] | 0.19
37 | TTDFSGNYSGYDDAWD [POLR1C 26-41 mut O15160.P30S] | 4.92
38 | MRDYDEVTAFLGEWWP [SLC22A5 1-16 mut O76082.G15W] | 0.34
39 | RITDDQLRVLWQYFDI [ZFHX3 2151-2166 mut Q15911.R2161W] | 27.5
40 | TADFPGNYSGYDDAWD [POLR1C 26-41 mut O15160.T27A] | 0.842
41 | ITDFPGNYSGYDDAWD [POLR1C 26-41 mut O15160.T26I] | 1.13
42 | KLENPLDYGSAWAAAA [AR 388-403 wt] | 1.42
43 | ALQELWAQHEDQVEQY [LMNA 244-259 mut P02545.R249W] | 0.141
44 | DDADALGGMLISWYMS [SMN1 255-270 mut Q16637.S262G] | 0.311
45 | TTDFPGNYSGYDDAWD [POLR1C 26-41 wt] | 1.31
46 | ELHSEFSEVMNEIWAS [HADHA 67-82 wt] | 0.367

Same assay, conditions: replicate selections in which the peptide was seen: 3

Row | Binder | mean normalised NGS count
47 | SLDYGSAWAAAAAQAR [AR 392-407 mut P10275.P392S] | 0.357
48 | KVKEPEPQYFRFEGVW [KMT2D 1576-1591 wt] | 0.103
49 | EAGLVEEFLLTDNSAI [POLG 672-687 mut P54098.A676V] | 0.0259
50 | EAVSVQWEEEYEEYEE [TTN 10662-10677 mut Q8WZ42.R10668W] | 0.0776
51 | EFESRLADALQELWAQ [LMNA 236-251 mut P02545.R249W] | 0.016
52 | TLEEEAVSVQWEEEYE [TTN 10658-10673 mut Q8WZ42.R10668W] | 0.0559
53 | DILEHDWREVQDSRQE [CARD10 319-334 mut Q9BWT7.A328V] | 0.0324
54 | ADALWWGLITLTTNGY [KCNQ2 265-280 mut O43526.I278N] | 0.0609
55 | EQKEMMEKAWEAYNQG [PRPF6 720-735 mut O94906.R729W] | 0.0976
56 | LRTDLTEAWVQVWFQN [ALX3 188-203 mut O95076.R196W] | 0.0365
57 | AQSRFIFFVDIWTTVL [KCNJ1 58-73 wt] | 1.88

Target: PPIA_full-length__P62937_1_165, P62937
Assay: as above
Conditions: replicate selections in which the peptide was seen: 3

PPIA_full-length__P62937_1_165, P62937, sequence (P62937 whole entry, looked up): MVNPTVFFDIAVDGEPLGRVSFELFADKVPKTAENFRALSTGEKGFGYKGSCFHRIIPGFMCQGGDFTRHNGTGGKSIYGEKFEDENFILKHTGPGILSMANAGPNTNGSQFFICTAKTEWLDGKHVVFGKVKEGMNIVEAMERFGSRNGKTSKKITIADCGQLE

Row | Binder | mean normalised NGS count
58 | DSHDIPWVSQYRLAAH [COX15 211-226 mut Q7KZN9.R217W] | 0.0322
